Laboratory results reported in PubChem BioAssay AID1745853 (National Center for Advancing Translational Sciences (NCATS), 2022).
The list shows a part of the results. Further columns of the screen follow, without active or inactive calls.

Assays:
Experiment in all cases: Primary Screen for Target Class Profiling of Small Molecule Inhibitors of Methyltransferases
[1] = biological target: Glycine N-methyltransferase (Homo sapiens) (UniProt Q14749); conditions: purified enzyme, MTase-Glo SAH luminescence; measured here: GNMT inhibition; at 40 µM; stronger effect = lower value
Outline: (§1)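 Each enzyme was assayed with SAM and its substrate. SAH formation detected by MTase-Glo luminescence; single-point 40 uM screen[…].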

[2] = biological target: Guanidinoacetate N-methyltransferase (Homo sapiens) (UniProt Q14353); conditions: purified enzyme, MTase-Glo SAH luminescence; measured here: GAMT inhibition; at 40 µM; stronger effect = lower value
Outline: as §1

[3] = biological target: Histamine N-methyltransferase (Homo sapiens) (UniProt P50135); conditions: purified enzyme, MTase-Glo SAH luminescence; measured here: HNMT inhibition; at 40 µM; stronger effect = lower value
Outline: as §1

[4] = biological target: Nicotinamide N-methyltransferase (Homo sapiens) (UniProt P40261); conditions: purified enzyme, MTase-Glo SAH luminescence; measured here: NNMT inhibition; at 40 µM; stronger effect = lower value
Outline: as §1

[5] = biological target: Phenylethanolamine N-methyltransferase (Homo sapiens) (UniProt P11086); conditions: purified enzyme, MTase-Glo SAH luminescence; measured here: PNMT inhibition; at 40 µM; stronger effect = lower value
Outline: as §1
% is scaled to controls: 0 for no effect and ±100 for the full control effect.

Row | SMILES | activity change, negative = inhibition [1] [%] | activity change, negative = inhibition [2] [%] | activity change, negative = inhibition [3] [%] | activity change, negative = inhibition [4] [%] | activity change, negative = inhibition [5] [%]
1 | O=C(c1ccccc1C(F)(F)F)N1CCc2nc3cc[nH]n3c(=O)c2C1 | -11.1 | -8.59 | -1.79 | -3.95 | -16.2
2 | COC[C@H]1NC(=O)CC[C@H]1C(=O)O | -3.8 | -3.69 | 0.995 | -9.4 | 8.71
3 | Cc1nc(C(=O)N2CC[C@H](NS(=O)(=O)c3cn(C)cn3)C[C@H]2C(=O)N[C@H](Cc2ccccc2)C(N)=O)cs1 | 1.47 | -3.88 | 3.46 | -0.167 | 0.678
4 | CCCN(CC1CCOC1)S(=O)(=O)c1cc(F)ccc1C (stereo not given) | -1.92 | 0.946 | 2.63 | -7.48 | -2.52
5 | CC(C)n1nnc2cc(S(=O)(=O)N(C)CC(=O)N3CCN(c4ccccn4)CC3)ccc21 | -3.31 | 3.15 | 5.53 | -4.58 | 3.91
6 | CC1CCCC(NC(=O)CCn2ccc3cc(S(=O)(=O)N4CCCC4)ccc32)C1C (stereo not given) | 3.15 | 0.351 | 1.81 | -1.29 | 1.27
7 | Cc1cc(C)c(S(=O)(=O)n2cc(C)cc2C)c(C)c1 | -7.99 | -8.58 | 3.1 | -69.2 | -5
8 | Cc1cccc(-c2n[nH]n3c2nc(=O)c2ccc(C(=O)NCc4ccc(F)cc4)cc23)c1 | -19.2 | 2.18 | -5.43 | -8.68 | -5.82
9 | CC(C)NC(=O)c1ccc2c(=O)n(Cc3ccccc3)c3nn(CC(=O)NC4CCCCC4)c(=O)n3c2c1 | 0.369 | 2.91 | 4.61 | 0.895 | 1.7
10 | CCC(C)/C=C(C)/C=C/C1=CC2=C(Cl)C(=O)C(C)(OC(C)=O)C(=O)C2=CN1C(CC(=O)O)C(=O)O (stereo not given) | -9.04 | -9.39 | -0.634 | -16.7 | -8.86
11 | Cc1[nH]c2ccccc2c1CCNCc1ccc(/C=C/C(=O)NO)cc1 | 4.64 | 1.05 | -73.3 | -14.5 | -5.88
12 | N[C@@H](Cc1ccc(O)c(I)c1)C(=O)O | 3.39 | 9.99 | 1.93 | -7.04 | 2.06
13 | CCc1cc(C(=O)N2CCC(n3nccc3NC(=O)CCOc3ccccc3)CC2)no1 | -0.508 | -4.42 | 1.07 | -2.82 | 0.753
14 | C[S+](=O)([O-])N1CCn2ncc(C(=O)NCc3ccc(Cl)nc3)c2C1 | -3.48 | -6.78 | -1.91 | -7.01 | -2.12
15 | CC(C)CN1CC(C(=O)NCc2nc(-c3ccccc3)no2)CC1=O (stereo not given) | -2.57 | -7.6 | -2.18 | -11.2 | 4.82
16 | CCn1c(=O)n(CC)c2cc(S(=O)(=O)Nc3cccc(OC)c3)ccc21 | 5.28 | 1.67 | 2.47 | -12.5 | 4.24
17 | Cc1ccc(-c2ccccc2CN2CCN(C(=O)c3ccc(C(F)(F)F)cc3)CC2)cc1Cl | -7.98 | -12.8 | -5.21 | -13.7 | -12.7
18 | C=CC(=O)Nc1ccc(CN2C(=O)N(c3cc(OC)cc(OC)c3)Cc3cnc(Nc4ccc(N5CCN(C)CC5)cc4)nc32)cc1 | -6.25 | 0.886 | -55.3 | -6.07 | 2.36
19 | COc1ccccc1CNC(=O)C1(C)Cn2cnc(C(=O)N3CCCC3)c2C(=O)N1C1CC1 (stereo not given) | 2.73 | 0 | 9.38 | 8.24 | 6.18
20 | O=C(c1csc(Cc2ccccc2)n1)N1CCC2(CCCNC2)C1 (stereo not given) | -2.4 | 0.637 | -2.85 | -3.34 | -3.79
21 | O=C(CCc1nnc2ccc(-c3ccc(Cl)cc3)nn12)N1CCC(Cc2ccccc2)CC1 | -17.7 | 4.34 | -8.06 | -15.6 | -9.01
22 | CC(C)NC(=O)N[C@H]1CCN(C(=O)c2cnccn2)[C@@H]1C(=O)N[C@@H](CCCNC(=O)c1cnccn1)C(N)=O | -1.62 | -4.91 | -1.35 | -9.86 | -3.28
23 | NC(=O)[C@H](Cc1cccs1)NC(=O)[C@@H]1C[C@@H](NC(=O)c2cnccn2)CCN1C(=O)COCC(=O)O | -0.417 | -2.26 | -0.918 | -1.8 | 0.791
24 | CCOc1ccc(C(=O)Cn2nc3n(C(C)C)c(=O)c4ccc(C(=O)NC5CCCC5)cc4n3c2=O)cc1 | 5.57 | 0 | 11.4 | 7.57 | 7
25 | CC(=O)Nc1c2n(c3ccc(F)cc13)CC(C)(C(=O)NCCC(C)C)N(C1CCCC1)C2=O (stereo not given) | 2.22 | 0.901 | 3.73 | 4.54 | -1.71
26 | CC(O)(C(=O)O)C1CCC2(C)C1CCC1(C)C2CCC2C3(C)CCC(O)C(C)(COC4OC(CO)C(O)C(O)C4O)C3CCC21C (stereo not given) | -1.56 | -14.7 | 4.38 | -25 | -5.13
27 | Cc1ccc(C)c(-c2cc(C(F)(F)F)nn2-c2ccc(S(N)(=O)=O)cc2)c1 | -8.83 | -9.23 | -16.8 | -61.9 | -7.05
28 | CSCC(=O)N1CC[C@H](NC(=O)Nc2cccc(SC)c2)[C@H]1C(=O)N[C@H](Cc1ccccc1)C(N)=O | -2.87 | -5.05 | -0.662 | -7.51 | -3.08
29 | CCOc1ccc(CNS(=O)(=O)c2ccc3[nH]c4c(c3c2)CCCC4)cc1OC | -0.365 | 0 | -4.23 | -2.89 | -5.59
30 | COCCNC(=S)N[C@H]1C[C@H]2C(=O)NC[C@@H](CCC(=O)NCc3ccccc3)N2C1 | -8.09 | -6.66 | -5.95 | -7.2 | -4.81
